Test results reported in the supplement of paper PMC4604168 (melanoma cell lines).
The other results are listed elsewhere or left out. Most values come without repeats; read them as rough.

These molecules were tested on WM115 (assay: cell count relative to DMSO control; melanoma cells; higher = more viable cells). Settings: library dose: low library concentration; 72 h.
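Note: cell number obtained by counting DAPI-stained nuclei in high-throughput microscope images with image analysis software, screen run in 1,536-well plates.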

| Structure (SMILES) | cell count [%] |
| --- | --- |
| CC(=O)c1c(C)c2cnc(Nc3ccc(N4CCNCC4)cn3)nc2n(C2CCCC2)c1=O [palbociclib] + O=S(=O)(c1ccccc1)N(CC(F)(F)F)c1ccc(C(O)(C(F)(F)F)C(F)(F)F)cc1 [T0901317] (first compound 0.04 µM, partner dose 1.4 µM) | 66.3 |
| Nc1ccn([C@@H]2O[C@H](CO)[C@@H](O)C2(F)F)c(=O)n1 [gemcitabine] + Nc1nc(F)nc2c1ncn2[C@@H]1O[C@H](CO)[C@@H](O)[C@@H]1O [fludarabine] (first compound 0.0004 µM, partner dose 0.2 µM) | 86.7 |
| Nc1ncn([C@H]2C[C@H](O)[C@@H](CO)O2)c(=O)n1 [decitabine] + COc1cc(N2CCC(N3CCN(C)CC3)CC2)ccc1Nc1ncc(Cl)c(Nc2ccccc2S(=O)(=O)C(C)C)n1 [NVP-TAE684] (first compound 0.1 µM, partner dose 0.08 µM) | 72.7 |
| Nc1nc(F)nc2c1ncn2[C@@H]1O[C@H](CO)[C@@H](O)[C@@H]1O [fludarabine] + COc1cc2c(Oc3ccc4[nH]c(C)cc4c3F)ncnc2cc1OCCCN1CCCC1 [cediranib] (first compound 0.2 µM, partner dose 0.4 µM) | 102 |
| CO[C@H]1C[C@@H]2CC[C@@H](C)[C@@](O)(O2)C(=O)C(=O)N2CCCC[C@H]2C(=O)O[C@H]([C@H](C)C[C@@H]2CC[C@@H](OCCO)[C@H](OC)C2)CC(=O)[C@H](C)/C=C(\C)[C@@H](O)[C@@H](OC)C(=O)[C@H](C)C[C@H](C)/C=C/C=C/C=C/1C [everolimus] + COc1ccc(Cl)c(Nc2nc3ccccc3nc2NS(=O)(=O)c2cccc(NC(=O)C(C)(C)N)c2)c1 [XL147] (first compound 0.02 µM, partner dose 0.8 µM) | 92.4 |
| Nc1ccn([C@@H]2O[C@H](CO)[C@@H](O)C2(F)F)c(=O)n1 [gemcitabine] + COc1cc2ncnc(Nc3ccc(Oc4ccccc4)cc3)c2cc1OC [SrcI1] (first compound 0.0004 µM, partner dose 2 µM) | 96.3 |
| CC(=O)O[C@@]12CO[C@@H]1C[C@H](O)[C@@]1(C)C(=O)[C@H](O)C3=C(C)[C@@H](OC(=O)[C@H](O)[C@@H](NC(=O)OC(C)(C)C)c4ccccc4)C[C@@](O)([C@@H](OC(=O)c4ccccc4)[C@H]21)C3(C)C [Docetaxel] + O=S(=O)(c1ccccc1)N(CC(F)(F)F)c1ccc(C(O)(C(F)(F)F)C(F)(F)F)cc1 [T0901317] (first compound 0.0001 µM, partner dose 1.4 µM) | 58.8 |
| CO[C@H]1C[C@@H]2CC[C@@H](C)[C@@](O)(O2)C(=O)C(=O)N2CCCC[C@H]2C(=O)O[C@H]([C@H](C)C[C@@H]2CC[C@@H](OCCO)[C@H](OC)C2)CC(=O)[C@H](C)/C=C(\C)[C@@H](O)[C@@H](OC)C(=O)[C@H](C)C[C@H](C)/C=C/C=C/C=C/1C [everolimus] + O=C(O)C(=O)Nc1sc2c(c1C(=O)O)CCNC2 [TCS401] (first compound 0.02 µM, partner dose 1.66667 µM) | 72.8 |
| CO[C@H]1C[C@@H]2CC[C@@H](C)[C@@](O)(O2)C(=O)C(=O)N2CCCC[C@H]2C(=O)O[C@H]([C@H](C)C[C@@H]2CC[C@@H](OCCO)[C@H](OC)C2)CC(=O)[C@H](C)/C=C(\C)[C@@H](O)[C@@H](OC)C(=O)[C@H](C)C[C@H](C)/C=C/C=C/C=C/1C [everolimus] + CN(C)S(=O)(=O)c1ccc2c(c1)/C(=C/c1cc3c([nH]1)CCCC3)C(=O)N2 [SU6656] (first compound 0.02 µM, partner dose 0.4 µM) | 60 |
| CC(=O)c1c(C)c2cnc(Nc3ccc(N4CCNCC4)cn3)nc2n(C2CCCC2)c1=O [palbociclib] + O=C1NC(=O)/C(=C/c2ccc(-c3ccc(F)cc3O)o2)S1 [AS252424] (first compound 0.04 µM, partner dose 1 µM) | 66.8 |
| CC(=O)c1c(C)c2cnc(Nc3ccc(N4CCNCC4)cn3)nc2n(C2CCCC2)c1=O [palbociclib] + O=C(Nc1cccc(Cl)c1)Nc1ncc(CCNc2ncnc3ccsc23)s1 [SNS314] (first compound 0.04 µM, partner dose 0.0008 µM) | 54.8 |
| Nc1ncn([C@H]2C[C@H](O)[C@@H](CO)O2)c(=O)n1 [decitabine] + C[C@]1(c2nc3c(C(N)=O)cccc3[nH]2)CCCN1 [Veliparib] (first compound 0.1 µM, partner dose 1.4 µM) | 77.5 |
| CC(=O)c1c(C)c2cnc(Nc3ccc(N4CCNCC4)cn3)nc2n(C2CCCC2)c1=O [palbociclib] + Clc1ccc(Nc2nnc(Cc3ccncc3)c3ccccc23)cc1 [vatalanib] (first compound 0.04 µM, partner dose 2 µM) | 73.3 |
| Nc1nc(F)nc2c1ncn2[C@@H]1O[C@H](CO)[C@@H](O)[C@@H]1O [fludarabine] + COc1cc2ncnc(Nc3ccc(Oc4ccccc4)cc3)c2cc1OC [SrcI1] (first compound 0.2 µM, partner dose 2 µM) | 96.3 |
